Laboratory results reported in PubChem BioAssay AID256 (DTP/NCI, 2004).
Inconclusive results and toxic doses are left out. The source holds more than one record for some entries. Only these are listed. An entry can have further records. Values given together are repeats across runs, samples, wells, individuals or studies. Records carry a tag for their origin. Letters count within one entry. Signs of the kind (2×) count equal records among those shown.

Test system: CD2F1 mice, L1210 leukemia ip, survival T/C
Assay: NCI In Vivo Anticancer Drug Screen. Data for tumor model L1210 Leukemia (intraperitoneal) in CD2F1 (CDF1) mice
Conditions: higher = longer survival
Outline: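 Transplantable tumor in mice; compound-treated vs vehicle-treated groups. Read-out = treated/control ratio of the measured endpoint.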

CC(O)C(=O)O.CCCCOC(=O)CC(O)(CC(=O)OCCCC)C(=O)OCCCC.[Cl-].[Cl-].[NH2-].[NH2-].[Pt+4]
T/C (endpoint: mean survival time, dose: 50.0 mg/kg/injection, schedule: Q04DX003 (ip), vehicle: Klucel (hydroxypropylcellulose) (HPC)): 119 % of control, 191 % of control [sample A] and 113 % of control (2×) [sample B]

CCC1(O)C(=O)OCc2c1cc1n(c2=O)Cc2cc3cc4c(cc3nc2-1)OCO4 (stereo not given)
T/C (endpoint: median survival time, dose: 8.0 mg/kg/injection, schedule: Q04DX002 (ip), vehicle: saline with Tween-80): 110 % of control and 186 % of control

CCOC(=O)c1ccc(NN=NCCF)cc1
T/C (endpoint: median survival time, dose: 25.0 mg/kg/injection, schedule: Q01DX009 (ip), vehicle: distilled water + Tween-80): 91 % of control (2×) and 186 % of control

NCc1cc(O)c(O)c(O)c1
T/C (endpoint: median survival time, dose: 75.0 mg/kg/injection, schedule: Q01DX005 (ip), vehicle: saline): 121 % of control and 151 % of control

CC(C)(C[NH-])C[NH-].[Cl][Pt+2]([Cl])([Cl])[Cl]
T/C (endpoint: median survival time, dose: 3.2 mg/kg/injection, schedule: Q04DX003 (ip), vehicle: water): 98 % of control, 102 % of control, 172 % of control

CNC(=O)c1ccccc1N=NN(C)C
T/C (endpoint: mean survival time, dose: 150.0 mg/kg/injection, schedule: Q01DX009 (ip), vehicle: Klucel (hydroxypropylcellulose) (HPC)): 112 % of control, 120 % of control, 152 % of control

COc1ccc(OC)c(NC(=O)N2CCCC(C)C2)c1 (stereo not given)
T/C (endpoint: mean survival time, dose: 200.0 mg/kg/injection, schedule: Q01DX009 (ip), vehicle: other): 95 % of control and 158 % of control

CCNC(=O)OCc1c(COC(=O)NCC)c(-c2ccc(Cl)c(Cl)c2)n2c1CCC2
T/C (endpoint: mean survival time, dose: 3.12 mg/kg/injection, schedule: Q01DX009 (ip), vehicle: saline with Tween-80): 116 % of control, 120 % of control, 164 % of control

Cc1cn(C2CC3[O][Sn]([c]4ccccc4)([c]4ccccc4)[O]CC3O2)c(=O)[nH]c1=O (stereo not given)
T/C (endpoint: mean survival time, dose: 1.56 mg/kg/injection, schedule: Q01DX005 (ip), vehicle: other): 96 % of control, 105 % of control, 156 % of control
T/C (endpoint: mean survival time, dose: 3.13 mg/kg/injection, schedule: Q01DX005 (ip), vehicle: other): 101 % of control, 105 % of control, 170 % of control

CS(=O)(=O)CS(=O)(=O)OCCF
T/C (endpoint: median survival time, dose: 6.25 mg/kg/injection, schedule: Q01DX009 (ip), vehicle: saline): 116 % of control and 170 % of control

CCN(CC)CCNc1ccc(C)c2sc3ccccc3c(=O)c12
T/C (endpoint: median survival time, dose: 100.0 mg/kg/injection, schedule: Q01DX009 (ip), vehicle: saline): 111 % of control, 150 % of control, 186 % of control

S=c1nc[nH]c2nc[nH]c12
T/C (endpoint: mean survival time, dose: 200.0 mg/kg/injection, schedule: Q04DX003 (ip), vehicle: alkali diluted with water): 101 % of control and 174 % of control

CC(=O)OCC1OC(N2CN=C(N)NC2=O)C(OC(C)=O)C1OC(C)=O (stereo not given)
T/C (endpoint: mean survival time, dose: 200.0 mg/kg/injection, schedule: Q01DX009 (ip), vehicle: saline): 117 % of control and 160 % of control

O=C(O)c1ccc(C(=O)O)o1.[NH-]C1CCCCC1[NH-].[Pt+2]
T/C (endpoint: mean survival time, dose: 10.0 mg/kg/injection, schedule: Q04DX003 (ip), vehicle: dextrose): 120 % of control and 178 % of control
